Source: PubChem BioAssay AID624173 (National Center for Advancing Translational Sciences (NCATS), 2012)
Where “and” joins values, the source holds several entries; their conditions need not be identical. Identical values can stand only once. Screen size: about 410,000 compounds; about 490 (0.12%) were called active. Inconclusive results, whose numbers are uncertain, are shown with a selection of clear calls. Calls come from the whole dose curve; as a rule, active = well fitted inhibition curve with a large enough effect; inconclusive = small, poorly fitted or top-dose-only effect; inactive = flat fitted curve, though single readings scatter. A potency beside an inconclusive call is a rough fit, not a confirmed value.

What follows are compounds tested against pyruvate kinase (Trypanosoma brucei) (UniProt Q57TT1) (assay: qHTS of Trypanosoma Brucei Inhibitors). Conditions: TbPYK enzyme, Kinase-Glo Plus ATP luminescence, 45 min; series mostly up to 76.8 µM; activity, negative = inhibition: at the top concentration.
Procedure, shortened: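 TbPYK + substrate in 50 mM TEA pH 7.2, 100 mM KCl, 10 mM MgCl2, 0.05% BSA, 0.01% Tween-20; cpd pinned; ADP 130 uM final; 45 min RT; Kinase-Glo Plus 10 min; luminescence endpoint.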
% is set by controls: 0 for no effect and ±100 for the full control effect; potency is the fitted concentration of half-maximal effect; tags give direction and shape of the fitted curve.
Note: nearly all actives have a fitted effect of over 50% in size.

Structure (SMILES)	Potency	activity, negative = inhibition
CNC(=S)N/N=C/c1ccc(C(C)C)cc1	inconclusive: 50.1 µM [inhibitor, single point]	
O=C(N/N=C/c1cc(Cl)ccc1O)c1ccncc1	inconclusive: 39.8 µM [inhibitor, single point]	
CCC1(C)Cc2c(sc3nc(SCC(=O)O)[nH]c(=O)c23)CO1 (stereo not drawn)	inconclusive: 35.5 µM [inhibitor, partial curve, poor fit]	
COc1cc(/C=N/NC(=O)COc2ccc(C)cc2)ccc1OC(=O)c1cccs1		inactive: 1.84%
COc1cccc(CNC(=O)COC(=O)CCCNC(=O)c2ccc(Cl)cc2)c1		inactive: 1.72%
CCCCC1(C)OC(=O)C(=Cc2ccc(-c3ccc(Cl)c(C(=O)O)c3)o2)C(=O)O1 (stereo not drawn)	inconclusive: 22.4 µM [inhibitor, partial curve]	
CC(C)c1nc2sc3c(=S)nc[nH]c3c2c2c1CCC2	inconclusive: 39.8 µM [inhibitor, partial curve, poor fit]	
COc1ccc(OC)c(NC(=O)c2c(NCc3sccc3C)sc3c2CCCCC3)c1	inconclusive: 5.62 µM [inhibitor, partial curve, poor fit]	
O=C(CSc1nnc(COc2ccccc2)n1Cc1ccco1)NCc1ccco1	inconclusive: 3.16 µM [inhibitor, partial curve, poor fit]	
CCN(CC)c1ccc2ccc(=O)oc2c1		inactive: -0.221%
CCOC(=O)N1CCc2c(sc(NCc3cccc(F)c3)c2C(=O)Nc2ccc(OC)cc2OC)C1	inconclusive: 2.24 µM [inhibitor, full curve]	
COCCN1C(=O)NC(=O)/C(=C\c2ccc(Br)cc2)C1=O	inconclusive: 31.6 µM [inhibitor, partial curve, poor fit]	
CC(C)OC(=O)C(C(=O)C(F)(F)F)c1cc(NS(=O)(=O)c2ccc3c4c(cccc24)C(=O)N3)ccc1O (stereo not drawn)		inactive: -11.9%
CN(CCc1ccccn1)C1CCCN(S(=O)(=O)c2ccccc2)C1 (stereo not drawn)		inactive: -4.74%
COc1ccc(NC(=O)CCCOc2ccc(Cl)c(C)c2)cc1S(=O)(=O)N1CCOCC1	inconclusive: 22.4 µM [inhibitor, partial curve, poor fit]	
O=C(O)CC1S/C(=N/N=C/c2ccc(-c3ccccc3[N+](=O)[O-])o2)NC1=O (stereo not drawn)	inconclusive: 31.6 µM [inhibitor, partial curve, poor fit]	
CCN1/C(=C/C(C)=C/c2sc3ccccc3[n+]2CC)Sc2ccccc21	inconclusive: 12.6 µM [inhibitor, partial curve] and inconclusive: 31.6 µM [inhibitor, partial curve]	
O=C(CC1CCCC1)N1CCN(S(=O)(=O)c2cccc(F)c2)CC1		inactive: 1.45%
O=C1c2sc3nc4ccccc4n3c2C(=O)N1c1ccccc1Cl	inconclusive: 17.8 µM [inhibitor, partial curve]	
COc1ccc(O)c(/C=c2/sc3nc4cc(C)c(C)cc4n3c2=O)c1	inconclusive: 14.1 µM [inhibitor, partial curve, poor fit]	
CCCCC1Cc2[nH]c(=S)[nH]c(=O)c2C(c2ccc(F)cc2)O1 (stereo not drawn)	inconclusive: 15.8 µM [inhibitor, partial curve, poor fit]	
Cc1ccsc1/C=N/n1c(-c2cccnc2)n[nH]c1=S	inconclusive: 12.6 µM [inhibitor, partial curve]	
CN(C(=O)COC(=O)/C=C/c1ccc(Cl)c(Cl)c1)c1c(N)n(Cc2ccccc2)c(=O)[nH]c1=O		inactive: -2.08%

Structure (SMILES)	Potency	activity, negative = inhibition
O=C(CSc1ccc(-c2ccco2)nn1)c1ccccc1	inconclusive: 28.2 µM [inhibitor, partial curve]	
c1cncc(-c2nc(-c3cccs3)cs2)c1	inconclusive: 3.98 µM [inhibitor, partial curve, poor fit]	
Cc1[nH][nH]c(=O)c1C(c1ccc(-c2ccc(C(=O)O)cc2)o1)c1c(C)[nH][nH]c1=O	inconclusive: 35.5 µM [inhibitor, partial curve, poor fit]	
O=C(CSc1ccc(-c2ccco2)nn1)Nc1ccc(F)cc1F	inconclusive: 35.5 µM [inhibitor, single point]	
C=CCN1C(=O)NC(=O)/C(=C/c2cc3c4c(c2)CCCN4CCC3)C1=O		inactive: -20.6%
O=C(CSc1nc(-c2ccc(F)cc2)cs1)N1CCOCC1		inactive: -9.21%
O=C(CC1NCCNC1=O)Nc1ccc2c(c1)OCO2 (stereo not drawn)		inactive: 2.08%
Cc1nnc2c3ccccc3c(-c3ccccc3)nn12		inactive: -3.02%
Nc1ccc(O)cc1C(=O)OCC(=O)C12CC3CC(CC(C3)C1)C2	inconclusive: 10 µM [inhibitor, partial curve]	
COc1ccc(C2CC(=O)N(Cc3ccc(F)cc3)c3ccccc3S2)cc1 (stereo not drawn)		inactive: 2.26%
O=Cc1cn(CC(=O)N2CCCc3ccccc32)c2ccccc12	inconclusive: 28.2 µM [inhibitor, single point]	
CCn1c(=S)[nH]c2cc(Cl)ccc21	inconclusive: 14.1 µM [inhibitor, partial curve]	
Cc1ccc(/C=N/n2c(-c3ccco3)n[nH]c2=S)cc1	inconclusive: 1 µM [inhibitor, full curve, poor fit]	
COc1cc(-c2cc(=O)c3c(O)cc(O)cc3o2)ccc1O	inconclusive: 20 µM [inhibitor, partial curve]	
CC(C1SC(=S)NC1=O)C1SC(=S)NC1=O (stereo not drawn)	inconclusive: 2.82 µM [inhibitor, partial curve, poor fit]	
O=C(Nc1cccc(Cl)c1)c1ccc(S(=O)(=O)NCC2CCCO2)cc1 (stereo not drawn)	inconclusive: 50.1 µM [inhibitor, single point]	
S=c1[nH]nc(COc2ccccc2)n1/N=C/C=C/c1ccccc1	inconclusive: 39.8 µM [inhibitor, partial curve, poor fit]	
Oc1ccc(/C=C/c2ccc3ccccc3n2)cc1	inconclusive: 31.6 µM [inhibitor, partial curve, poor fit]	
Cc1nc2nncn2c(NCc2ccc(Cl)cc2)c1C		inactive: 0.381%
CSCCC1NC(=O)N(CC(=O)Nc2c(Cl)cc(Cl)cc2Cl)C1=O (stereo not drawn)	inconclusive: 39.8 µM [inhibitor, single point]	
c1ccc(-c2noc(-c3ccc4c(c3)OCO4)n2)nc1	active: 11.2 µM	
Cc1ccc(C)c2c1cc(C)c1nnc(SCC(=O)c3cccs3)n12	inconclusive: 50.1 µM [inhibitor, single point]	
CC(=O)c1c(C)[nH]c(C(=O)OCc2cccc(Cl)c2)c1C		inactive: 2.15%

Structure (SMILES)	Potency	activity, negative = inhibition
C=CCn1c(-c2ccccc2)n[nH]c1=S	inconclusive: 50.1 µM [inhibitor, single point]	
Cc1csc(NC(=O)CCc2nc3ccccc3s2)n1		inactive: -6.77%
CCN(C(=O)c1coc(=O)c(Br)c1)c1ccc2c(c1)OCO2	inconclusive: 31.6 µM [inhibitor, partial curve]	
Cc1cc(C)cc(-n2cc[nH]c2=S)c1	inconclusive: 50.1 µM [inhibitor, single point]	
O=C(NN1CCOCC1)c1cc(-c2ccc(Br)s2)nc2ccccc12		inactive: 0.478%
COc1cc(/C=N/Nc2ccc(F)cc2F)cc(OC)c1O	inconclusive: 0.891 µM [inhibitor, full curve, poor fit]	
C=CCn1c(CSc2nc3ccccc3s2)n[nH]c1=S	active: 4.47 µM	
N#CC(C#N)=C(N)/C(C#N)=C/c1cc(O)c(O)c(O)c1	inconclusive: 50.1 µM [inhibitor, single point]	
Cc1ccc(C(=O)N[C@H](C(=O)Nc2ccc(N3CCOCC3)cc2)C(C)C)cc1		inactive: -8.7%
Cc1cc2nc3ccc(N(C)C)cc3nc2cc1N	inconclusive: 35.5 µM [inhibitor, single point]	
CC(C)C[C@H]1CNC(=S)N1C[C@H]1CCCN1C[C@H](CC(C)C)N1C[C@H](Cc2ccc(O)cc2)N(CC2CCCCCC2)C1=S		inactive: -6.95%
CC1CCN(C(=O)CSc2c(C(C)C)cnc3c2c(=O)n(C)c(=O)n3C)CC1	inconclusive: 35.5 µM [inhibitor, single point]	
CCCC(=O)Nc1ccc2oc(-c3cncc(Br)c3)nc2c1		inactive: 0.0406%
N#Cc1ccsc1NC(=O)CN1CCN(c2ccc(O)cc2)CC1	inconclusive: 20 µM [inhibitor, partial curve]	
O=C1NC(=S)NC(=O)C1=Cc1ccc(Br)s1	inconclusive: 14.1 µM [inhibitor, partial curve, poor fit]	
COc1ccc(C(=O)NC(=S)N2CCOCC2)cc1Br	inconclusive: 28.2 µM [inhibitor, partial curve]	
Cc1cc2cc(C(c3nnnn3Cc3ccco3)N3CCc4ccccc43)c(=O)[nH]c2cc1C (stereo not drawn)	inconclusive: 35.5 µM [inhibitor, single point]	
CN1/C(=C/C=C/c2n(C)c3cc([N+](=O)[O-])c([N+](=O)[O-])cc3[n+]2C)C(C)(C)c2ccccc21	inconclusive: 35.5 µM [inhibitor, single point]	
COc1cc(/C=N/n2c(-c3n[nH]c4c3CCC4)n[nH]c2=S)ccc1O	inconclusive: 3.16 µM [inhibitor, partial curve, poor fit]	
N#C/C(C(=O)Nc1ccc(Cl)cc1)=C(/S)Nc1ccccc1	inconclusive: 7.08 µM [inhibitor, full curve]	
Cc1sc(N)c(C(=O)c2ccccc2)c1C	inconclusive: 15.8 µM [inhibitor, partial curve, poor fit]	
CC(C)CCn1c(=O)c2ccccc2n2c(=S)[nH]nc12	inconclusive: 6.31 µM [inhibitor, partial curve]	
